Results: the supplement of paper PMC10126150
Values marked as one replicate rest on one cluster of the flow cell; about a third of the high ones do not repeat.

Tested on: ATP
Assay: switch fluorescence ratio, 500 uM ATP over buffer (Cy3 cluster intensity, sum of 5 cycles each) (fold (ratio)); higher = stronger signal-on switching upon ATP binding; sequences stand for … in TCGTCGGCAGCGTCAGATGTGTATAAGAGACAGTTTTTTTTTTTTTTTTTTTTTTTTT…TC
Settings: aptamer strand: ATP DNA aptamer (quencher-CACCTGGGGGAGTATTGCGGAGGAAGG + anchor), 100 nM annealed; ATP concentration: 500 uM; one replicate
Outline: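 The fluorescence ratio divides summed target-cycle Cy3 intensity by summed buffer-cycle Cy3 intensity for each cluster and is averaged per switch-domain sequence. Cy3-labelled switching-strand clusters on a modified Illumina MiSeq flow-cell were annealed to 100 nM quencher-labelled ATP aptamer, then imaged in selection buffer and again after 15 min with 500 uM ATP at 22 °C. Five such cycles were run, with NaOH stripping and re-annealing between them, and clusters outside 100-1000 RFU were excluded.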
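Note: ATP exposure 15 min at 22 °C before imaging.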

Row | Sequence | switch fluorescence ratio
1 | CGGGGCGGAC | 1.06
2 | CACGCGTTAT | 1.02
3 | CACGTAGCAC | 3.22
4 | TGCTGGACAC | 1.01
5 | CGGTCAAAAT | 0.997
6 | ACTCCATTCA | 1.06
7 | CGACACTGTG | 0.974
8 | GATTATATAC | 1.1
9 | GCGTGGCAAT | 1.06
10 | TGCATTCCGT | 1.05
11 | GAAAAGAGCG | 1.03
12 | ACATGCTAGG | 0.995
13 | AACCGTTGCG | 1.04
14 | AGTCCGAATG | 1.06
15 | ATCCAATAAT | 0.997
16 | GGTTCGGAGG | 0.968
17 | CTATTCCGGC | 1.03
18 | TCCGTCGTTC | 1.2
19 | GCTTTATGGT | 0.996
20 | GCACTCACAT | 1.27
21 | AAGTTTATTG | 1.02
22 | TCTAAGTGAT | 0.98
23 | TTTTAGCGC | 0.977

Row | Sequence | switch fluorescence ratio
24 | ACAGAAGGTG | 1.53
25 | ACGCTATGCC | 1.19
26 | TGGGTCGGC | 1.03
27 | AAGCGTGTA | 1.05
28 | AGAAATAAAG | 1.01
29 | ATCAGGTTG | 1.06
30 | TCTTTAATGC | 1.16
31 | ATAGGGGAGC | 0.97
32 | GCAAGGTATA | 1.02
33 | AGGTTGCCAG | 0.992
34 | ATTGACCTGT | 1.05
35 | ATAACGAGGA | 1.02
36 | AGCGGGGTTG | 1.02
37 | AACTGCCGA | 1.04
38 | ACTAAGAGCG | 0.982
39 | GGCGGCGCGG | 0.966
40 | TATGATCGGA | 1.02
41 | TGTGCCATTT | 0.968
42 | AATAACGAC | 1.06
43 | TGCCGTTAGT | 1.06
44 | GCAATCGTCA | 1.15
45 | CGCGCCAATC | 3.17
46 | GGTCGCTAAA | 0.929

Row | Sequence | switch fluorescence ratio
47 | TCGTGAAGCC | 1
48 | CATCACTCTT | 0.96
49 | CAAGTTGTCA | 1.03
50 | CTTTGCAACT | 1.46
51 | ATCTAGGTGG | 1.03
52 | GGGCATGGGG | 1.02
53 | AGCATGGGG | 0.984
54 | GCAAGTCCGG | 1.04
55 | AAGGGCCAAG | 0.994
56 | CTATTTGAA | 1.01
57 | TTCCCCTCT | 1.1
58 | GCTGGGGGG | 1.03
59 | TTCGATCATT | 1.02
60 | ACGAATGTTT | 0.973
61 | TGCAGTAAAA | 1.01
62 | GGCAAATGCA | 0.999
63 | ACTATACAGT | 1.21
64 | CTTTACTCTC | 1
65 | AACCATATGA | 1.02
66 | CAAATCTCGG | 0.984
67 | ACGAGTACAG | 1.13
68 | CGTACGTAAC | 1.56
69 | GATTACCACT | 1.02

Row | Sequence | switch fluorescence ratio
70 | GATATACAAG | 1
71 | TTAAAGAGCC | 1.01
72 | CCCACGATGA | 1.16
73 | AATTCACTGG | 1.05
74 | CCCTATAAAA | 1.01
75 | CGATTGATAA | 1.04
76 | TAAGGGGCTA | 0.999
77 | GCCTTCTCAA | 1.32
78 | GGTATCGTCC | 1
79 | CTCATGTGAA | 0.973
80 | CGTCGGCGCT | 1.03
81 | TTGAGTTGAA | 0.991
82 | GGCGCATGTG | 1.01
83 | TTGGGAACGA | 0.982
84 | ATTAGGCAGG | 1.04
85 | GGTCCATTT | 1.01
86 | GACGTCTACT | 1.04
87 | CGGCCCTTGC | 1.06
88 | TAACAGTAT | 1.03
89 | CAAAGGATC | 1.01
90 | TATTAGAAAC | 1.04
91 | GTTTGATTTG | 0.956
92 | TTCGTTAGGC | 1.01

Row | Sequence | switch fluorescence ratio
93 | AAGTGATATC | 1.01
94 | TTGGCGCGGA | 1
95 | GACGGTCAAC | 1.02
96 | CAACGTATCA | 1.1
97 | CGATAGCCAT | 1.06
98 | CCGGCGGGTC | 1.04
99 | TCGAGGGATG | 1.03
100 | CACTACAGTG | 1.02
101 | CCCTGCACCT | 1.55
102 | TGGCGATGTC | 0.968
103 | AGCCAAACGC | 1.03
104 | CCCTCTTTTC | 1.27
105 | AAGTGATGAC | 1.03
106 | CAATTGGTGA | 1.01
107 | GAAAAAATAA | 0.99
108 | GGATTATTCG | 0.971
109 | GCTACAGGGC | 1.09
110 | AGGCATAGTG | 0.995
111 | CGTCAAGGCT | 1.04
112 | CTAAACACCA | 1.02
113 | ATTAATCCTA | 1.01
114 | GGCATGAGTA | 1
115 | TTTGGCCATT | 1.01

Row | Sequence | switch fluorescence ratio
116 | CTCATTAGTT | 0.96
117 | CCGTAGCGCG | 1.86
118 | TCAGCGAGGA | 1.26
119 | TCATAAAGGA | 0.984
120 | TACACTGGAA | 1.06
121 | TCACGGCTTG | 0.973
122 | CGATAATTAC | 1.43
123 | TTTCCACGGC | 1.07
124 | TACCTGTG | 1.05
125 | ACCTATCACT | 1.16
126 | TCTTGGCAGG | 1.02
127 | AATGCGAGTC | 1.03
128 | AGCCCTGGAG | 1.05
129 | GTGTGTTTGA | 0.997
130 | CATATCTTAT | 0.972
131 | TCCGTATACG | 1.03
132 | GCAACGTGCT | 1.02
133 | TCTTGTAGAC | 1.01
134 | GCAAGTTAAA | 1.04
135 | GGTATTTGT | 0.971
136 | AGTTTAGTCA | 1.01
137 | GCCTAGTATG | 0.972
138 | TGATGCTTCG | 1.04

Row | Sequence | switch fluorescence ratio
139 | GCCCCGGTGG | 1.13
140 | TTGTTACCAT | 1.04
141 | TCATACTGT | 0.993
142 | CGCCCGCGT | 3.09
143 | TCCGTTACGC | 2.41
144 | ACTCTGGGTT | 1.05
145 | AGCGTCCTGT | 0.983
146 | GAGTCAGGTT | 1.01
147 | TCAGCATATC | 4.77
148 | GAGGCGCGGT | 0.982
149 | ATTGCTTCTG | 1.1
150 | TGGGGCGCCC | 1.17
151 | GGGTCACCTT | 0.977
152 | AGGGTTTGCC | 0.977
153 | CGCCGACCTG | 0.98
154 | ACGTGCTATT | 1.01
155 | CTGATAGGG | 0.967
156 | ATAATGTCGG | 0.996
157 | TATCGCTATG | 1.06
